Results from the supplement of paper PMC8728848.
The other results are listed elsewhere or left out.

Legend:
Experiment in all cases: glycan array binding signal (z-score within array); higher = stronger binding
Conditions in all cases: glycan notation: IUPAC condensed, linker removed
[1] = biological target: Gal(b1-4)GlcNAc(b1-2)[Gal(b1-4)GlcNAc(b1-6)]Man(a1-6)[Gal(b1-4)GlcNAc(b1-2)Man(a1-3)]Man(b1-4)GlcNAc(b1-4)[Fuc(a1-6)]GlcNAc
In short: (§1)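 The Consortium for Functional Glycomics database supplied 3228 glycan arrays, of which those lacking an available protein sequence were dropped. The binding signal, a within-array Z-score, was averaged across arrays of the same protein sequence and across linkers. Negative scores can be read as non-binding.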

[2] = biological target: Gal(b1-4)GlcNAc(b1-2)[Gal(b1-4)GlcNAc(b1-6)]Man(a1-6)[GlcNAc(b1-4)][Gal(b1-4)GlcNAc(b1-2)Man(a1-3)]Man(b1-4)GlcNAc(b1-4)GlcNAc
In short: as §1

[3] = biological target: Gal(b1-4)GlcNAc(b1-2)[Gal(b1-4)GlcNAc(b1-6)]Man(a1-6)[GlcNAc(b1-4)][Gal(b1-4)GlcNAc(b1-2)[Gal(b1-4)GlcNAc(b1-4)]Man(a1-3)]Man(b1-4)GlcNAc(b1-4)[Fuc(a1-6)]GlcNAc
In short: as §1

[4] = biological target: Gal(b1-4)GlcNAc(b1-3)Gal(b1-3)GalNAc
In short: as §1

[5] = biological target: Gal(b1-4)GlcNAc(b1-3)Gal(b1-3)GlcNAc
In short: as §1

[6] = biological target: Gal(b1-4)GlcNAc(b1-3)Gal(b1-4)Glc
In short: as §1

[7] = biological target: Gal(b1-4)GlcNAc(b1-3)Gal(b1-4)GlcNAc
In short: as §1

[8] = biological target: Gal(b1-4)GlcNAc(b1-3)Gal(b1-4)GlcNAc(b1-2)Man(a1-3)[Gal(b1-4)GlcNAc(b1-3)Gal(b1-4)GlcNAc(b1-2)Man(a1-6)]Man(b1-4)GlcNAc(b1-4)GlcNAc
In short: as §1

[9] = biological target: Gal(b1-4)GlcNAc(b1-3)Gal(b1-4)GlcNAc(b1-2)Man(a1-3)[Gal(b1-4)GlcNAc(b1-3)Gal(b1-4)GlcNAc(b1-2)Man(a1-6)]Man(b1-4)GlcNAc(b1-4)[Fuc(a1-6)]GlcNAc
In short: as §1

[10] = biological target: Gal(b1-4)GlcNAc(b1-3)Gal(b1-4)GlcNAc(b1-2)[Gal(b1-4)GlcNAc(b1-3)Gal(b1-4)GlcNAc(b1-6)]Man(a1-6)[Gal(b1-4)GlcNAc(b1-3)Gal(b1-4)GlcNAc(b1-2)Man(a1-3)]Man(b1-4)GlcNAc(b1-4)GlcNAc
In short: as §1

[11] = biological target: Gal(b1-4)GlcNAc(b1-3)Gal(b1-4)GlcNAc(b1-2)[Gal(b1-4)GlcNAc(b1-3)Gal(b1-4)GlcNAc(b1-6)]Man(a1-6)[Gal(b1-4)GlcNAc(b1-3)Gal(b1-4)GlcNAc(b1-2)Man(a1-3)]Man(b1-4)GlcNAc(b1-4)[Fuc(a1-6)]GlcNAc
In short: as §1

[12] = biological target: Gal(b1-4)GlcNAc(b1-3)Gal(b1-4)GlcNAc(b1-3)Gal(b1-4)GlcNAc
In short: as §1

[13] = biological target: Gal(b1-4)GlcNAc(b1-3)Gal(b1-4)GlcNAc(b1-3)Gal(b1-4)GlcNAc(b1-2)Man(a1-3)[Gal(b1-4)GlcNAc(b1-3)Gal(b1-4)GlcNAc(b1-3)Gal(b1-4)GlcNAc(b1-2)Man(a1-6)]Man(b1-4)GlcNAc(b1-4)GlcNAc
In short: as §1

[14] = biological target: Gal(b1-4)GlcNAc(b1-3)Gal(b1-4)GlcNAc(b1-3)Gal(b1-4)GlcNAc(b1-2)Man(a1-3)[Gal(b1-4)GlcNAc(b1-3)Gal(b1-4)GlcNAc(b1-3)Gal(b1-4)GlcNAc(b1-2)Man(a1-6)]Man(b1-4)GlcNAc(b1-4)[Fuc(a1-6)]GlcNAc
In short: as §1

[15] = biological target: Gal(b1-4)GlcNAc(b1-3)Gal(b1-4)GlcNAc(b1-3)Gal(b1-4)GlcNAc(b1-2)[Gal(b1-4)GlcNAc(b1-3)Gal(b1-4)GlcNAc(b1-3)Gal(b1-4)GlcNAc(b1-6)]Man(a1-6)[Gal(b1-4)GlcNAc(b1-3)Gal(b1-4)GlcNAc(b1-3)Gal(b1-4)GlcNAc(b1-2)Man(a1-3)]Man(b1-4)GlcNAc(b1-4)[Fuc(a1-6)]GlcNAc
In short: as §1

[16] = biological target: Gal(b1-4)GlcNAc(b1-3)Gal(b1-4)GlcNAc(b1-3)Gal(b1-4)GlcNAc(b1-3)Gal(b1-4)GlcNAc(b1-2)Man(a1-3)[Gal(b1-4)GlcNAc(b1-3)Gal(b1-4)GlcNAc(b1-3)Gal(b1-4)GlcNAc(b1-3)Gal(b1-4)GlcNAc(b1-2)Man(a1-6)]Man(b1-4)GlcNAc(b1-4)GlcNAc
In short: as §1

[17] = biological target: Gal(b1-4)GlcNAc(b1-3)Gal(b1-4)GlcNAc(b1-3)Gal(b1-4)GlcNAc(b1-3)Gal(b1-4)GlcNAc(b1-2)Man(a1-3)[Gal(b1-4)GlcNAc(b1-3)Gal(b1-4)GlcNAc(b1-3)Gal(b1-4)GlcNAc(b1-3)Gal(b1-4)GlcNAc(b1-2)Man(a1-6)]Man(b1-4)GlcNAc(b1-4)[Fuc(a1-6)]GlcNAc
In short: as §1

[18] = biological target: Gal(b1-4)GlcNAc(b1-3)Gal(b1-4)GlcNAc(b1-3)Gal(b1-4)GlcNAc(b1-3)Gal(b1-4)GlcNAc(b1-2)[Gal(b1-4)GlcNAc(b1-3)Gal(b1-4)GlcNAc(b1-3)Gal(b1-4)GlcNAc(b1-3)Gal(b1-4)GlcNAc(b1-6)]Man(a1-6)[Gal(b1-4)GlcNAc(b1-3)Gal(b1-4)GlcNAc(b1-3)Gal(b1-4)GlcNAc(b1-3)Gal(b1-4)GlcNAc(b1-2)Man(a1-3)]Man(b1-4)GlcNAc(b1-4)[Fuc(a1-6)]GlcNAc
In short: as §1

[19] = biological target: Gal(b1-4)GlcNAc(b1-3)Gal(b1-4)GlcNAc(b1-3)Gal(b1-4)GlcNAc(b1-3)Gal(b1-4)GlcNAc(b1-3)Gal(b1-4)GlcNAc(b1-2)Man(a1-3)[Gal(b1-4)GlcNAc(b1-3)Gal(b1-4)GlcNAc(b1-3)Gal(b1-4)GlcNAc(b1-3)Gal(b1-4)GlcNAc(b1-3)Gal(b1-4)GlcNAc(b1-2)Man(a1-6)]Man(b1-4)GlcNAc(b1-4)GlcNAc
In short: as §1

[20] = biological target: Gal(b1-4)GlcNAc(b1-3)Gal(b1-4)GlcNAc(b1-3)Gal(b1-4)GlcNAc(b1-3)Gal(b1-4)GlcNAc(b1-3)Gal(b1-4)GlcNAc(b1-2)Man(a1-3)[Gal(b1-4)GlcNAc(b1-3)Gal(b1-4)GlcNAc(b1-3)Gal(b1-4)GlcNAc(b1-3)Gal(b1-4)GlcNAc(b1-3)Gal(b1-4)GlcNAc(b1-2)Man(a1-6)]Man(b1-4)GlcNAc(b1-4)[Fuc(a1-6)]GlcNAc
In short: as §1

[21] = biological target: Gal(b1-4)GlcNAc(b1-3)Gal(b1-4)GlcNAc(b1-3)Gal(b1-4)GlcNAc(b1-3)Gal(b1-4)GlcNAc(b1-3)Gal(b1-4)GlcNAc(b1-2)[Gal(b1-4)GlcNAc(b1-3)Gal(b1-4)GlcNAc(b1-3)Gal(b1-4)GlcNAc(b1-3)Gal(b1-4)GlcNAc(b1-3)Gal(b1-4)GlcNAc(b1-6)]Man(a1-6)[Gal(b1-4)GlcNAc(b1-3)Gal(b1-4)GlcNAc(b1-3)Gal(b1-4)GlcNAc(b1-3)Gal(b1-4)GlcNAc(b1-3)Gal(b1-4)GlcNAc(b1-2)Man(a1-3)]Man(b1-4)GlcNAc(b1-4)[Fuc(a1-6)]GlcNAc
In short: as §1

[22] = biological target: Gal(b1-4)GlcNAc(b1-3)Gal(b1-4)GlcNAc(b1-3)Gal(b1-4)GlcNAc(b1-3)Gal(b1-4)GlcNAc(b1-3)Gal(b1-4)GlcNAc(b1-3)Gal(b1-4)GlcNAc(b1-2)Man(a1-3)[Gal(b1-4)GlcNAc(b1-3)Gal(b1-4)GlcNAc(b1-3)Gal(b1-4)GlcNAc(b1-3)Gal(b1-4)GlcNAc(b1-3)Gal(b1-4)GlcNAc(b1-3)Gal(b1-4)GlcNAc(b1-2)Man(a1-6)]Man(b1-4)GlcNAc(b1-4)GlcNAc
In short: as §1

[23] = biological target: Gal(b1-4)GlcNAc(b1-3)Gal(b1-4)GlcNAc(b1-3)GalNAc
In short: as §1

[24] = biological target: Gal(b1-4)GlcNAc(b1-3)Gal(b1-4)GlcNAc(b1-3)[Gal(b1-4)GlcNAc(b1-3)Gal(b1-4)GlcNAc(b1-6)]GalNAc
In short: as §1

[25] = biological target: Gal(b1-4)GlcNAc(b1-3)Gal(b1-4)GlcNAc(b1-6)[Gal(b1-3)]GalNAc
In short: as §1

[26] = biological target: Gal(b1-4)GlcNAc(b1-3)Gal(b1-4)[Fuc(a1-3)]GlcNAc(b1-3)Gal(b1-4)[Fuc(a1-3)]GlcNAc
In short: as §1

[27] = biological target: Gal(b1-4)GlcNAc(b1-3)GalNAc
In short: as §1

[28] = biological target: Gal(b1-4)GlcNAc(b1-3)[Fuc(a1-3)GlcNAc(b1-6)]Gal(b1-4)Glc
In short: as §1

[29] = biological target: Gal(b1-4)GlcNAc(b1-3)[Gal(b1-4)GlcNAc(b1-6)]Gal(b1-4)GlcNAc
In short: as §1

[30] = biological target: Gal(b1-4)GlcNAc(b1-3)[GlcNAc(b1-6)]Gal(b1-4)GlcNAc
In short: as §1

[31] = biological target: Gal(b1-4)GlcNAc(b1-6)Gal(b1-4)GlcNAc
In short: as §1

[32] = biological target: Gal(b1-4)GlcNAc(b1-6)GalNAc
In short: as §1

[33] = biological target: Gal(b1-4)GlcNAc(b1-6)[Gal(b1-3)]GalNAc
In short: as §1

[34] = biological target: Gal(b1-4)GlcNAc(b1-6)[Gal(b1-4)GlcNAc(b1-3)]GalNAc
In short: as §1

Gal(b1-4)GlcNAc6P = biological target: Gal(b1-4)GlcNAc6P
In short: as §1

Gal(b1-6)Gal = biological target: Gal(b1-6)Gal
In short: as §1

Gal3S(b1-3)GalNAc = biological target: Gal3S(b1-3)GalNAc
In short: as §1

Gal3S(b1-3)GlcNAc = biological target: Gal3S(b1-3)GlcNAc
In short: as §1

B1: PkBDPgamma (Plasmodium knowlesi) (protein)
chain: SAINQIFLQNNVMDKCNDKRKRGERDWDCPTEKDVCIPDRRYQLCMMEITNLVDTDTHFHSDIIFRKSYSRRRLIYDVGGRGDLLLKKYNNVYSEDLCKDIKWSLQDFGDIIMGTDMEGIGYSLVVQNNLRSIFGTGTSAELDRKKWWNDHKKDIWKAMILSVKEKNRYSAWNCKEDVQIKVEPQIYRWIREWGRDYMSEFREQRRKLNEKCEDKLYYSTMLICTLPPCNNACKSYDEWITGKKKQWDVLSTKFSSVKKAQKIETENIARAYDILKQELNGFNEVTFENEINKRDKLYNYFCVCIVQEARKNTQENVKNVGSGVESKAPSSNPINEAVKSSSGEGKVQEDSAHRSVNEGEGKSSTNEADPGSQPGAAASGGGSGGGTGGGVDLAPQMLRELQETNAALQDVRELLRQQVKEITFLKNTVMECDACGGPLDRNLPPLAPLGPTGGWSHPQFEK
[1]
  glycan array binding signal (z-score): 0.233
[2]
  glycan array binding signal (z-score): -0.34
[3]
  glycan array binding signal (z-score): 0.037
[4]
  glycan array binding signal (z-score): -0.023
[5]
  glycan array binding signal (z-score): -0.263
[6]
  glycan array binding signal (z-score): 0.051
[7]
  glycan array binding signal (z-score): -0.281
[8]
  glycan array binding signal (z-score): 0.431
[9]
  glycan array binding signal (z-score): 0.401
[10]
  glycan array binding signal (z-score): 0.897
[11]
  glycan array binding signal (z-score): 0.013
[12]
  glycan array binding signal (z-score): -0.217
[13]
  glycan array binding signal (z-score): 0.866
[14]
  glycan array binding signal (z-score): 0.01
[15]
  glycan array binding signal (z-score): 0.679
[16]
  glycan array binding signal (z-score): 0.427
[17]
  glycan array binding signal (z-score): 0.564
[18]
  glycan array binding signal (z-score): 0.169
[19]
  glycan array binding signal (z-score): 1.25
[20]
  glycan array binding signal (z-score): -0.118
[21]
  glycan array binding signal (z-score): 0.939
[22]
  glycan array binding signal (z-score): 0.753
[23]
  glycan array binding signal (z-score): 0.087
[24]
  glycan array binding signal (z-score): 0.707
[25]
  glycan array binding signal (z-score): -0.24
[26]
  glycan array binding signal (z-score): -0.167
[27]
  glycan array binding signal (z-score): -0.092
[28]
  glycan array binding signal (z-score): -0.221
[29]
  glycan array binding signal (z-score): 0.122
[30]
  glycan array binding signal (z-score): 0.107
[31]
  glycan array binding signal (z-score): 0.108
[32]
  glycan array binding signal (z-score): 0.08
[33]
  glycan array binding signal (z-score): -0.298
[34]
  glycan array binding signal (z-score): 0.249
Gal(b1-4)GlcNAc6P
  glycan array binding signal (z-score): 0.178
Gal(b1-6)Gal
  glycan array binding signal (z-score): -0.046
Gal3S(b1-3)GalNAc
  glycan array binding signal (z-score): 0.208
Gal3S(b1-3)GlcNAc
  glycan array binding signal (z-score): 0.068
